# Reference: the supplement of paper PMC4604168 (melanoma cell lines)
# The other results are listed elsewhere or left out. Single values are uncertain, as repeats are few or missing.
# Tests used:
# Test in all cases: cell count relative to DMSO control; melanoma cells; higher = more viable cells
# Details in all cases: library dose: standard library concentration; 72 h; first compound 2 µM
# G361 = tested on: G361
# IPC-298 = tested on: IPC-298
# IST-MEL1 = tested on: IST-MEL1
# LOXIMVI = tested on: LOXIMVI
# MEL-HO = tested on: MEL-HO
# MeWo = tested on: MeWo
# RPMI7951 = tested on: RPMI7951
# RVH-421 = tested on: RVH-421
# SkMel28 = tested on: SkMel28
# SkMel2 = tested on: SkMel2
# SkMel30 = tested on: SkMel30
# SkMel5 = tested on: SkMel5
# UACC257 = tested on: UACC257
# UACC62 = tested on: UACC62
# WM115 = tested on: WM115
# WM1716 = tested on: WM1716
# WM1745 = tested on: WM1745
# WM3526 = tested on: WM3526
# LB2518-MEL = tested on: LB2518-MEL
# MZ2-MEL = tested on: MZ2-MEL
# 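Further: cells treated in 1,536-well plates, then fixed and DAPI-stained, with nuclei counted from automated high-throughput microscope images.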
SMILES,cell count (G361) [%],cell count (IPC-298) [%],cell count (IST-MEL1) [%],cell count (LOXIMVI) [%],cell count (MEL-HO) [%],cell count (MeWo) [%],cell count (RPMI7951) [%],cell count (RVH-421) [%],cell count (SkMel28) [%],cell count (SkMel2) [%],cell count (SkMel30) [%],cell count (SkMel5) [%],cell count (UACC257) [%],cell count (UACC62) [%],cell count (WM115) [%],cell count (WM1716) [%],cell count (WM1745) [%],cell count (WM3526) [%],cell count (LB2518-MEL) [%],cell count (MZ2-MEL) [%]
C[C@@H](N)c1ccc(C(=O)Nc2ccnc3[nH]ccc23)cc1 + CN(c1ncccc1CNc1nc(Nc2ccc3c(c2)CC(=O)N3)ncc1C(F)(F)F)S(C)(=O)=O [PF562271] (partner dose 0.4 µM),53.4,74.6,88.8,66.6,46.5,77.7,30.4,65.5,53.7,68.5,84.1,59.3,47.4,62.4,80.9,44.6,26.1,91.8,–,–
Cn1sc(=O)n(Cc2ccccc2)c1=O + COC(=O)c1sccc1S(=O)(=O)Nc1ccc(Nc2ccccc2)cc1OC [GSK0660] (partner dose 5 µM),98.6,96.2,102,110,91.2,86.1,89.5,129,77.3,100,103,65.9,93.1,76.7,105,108,–,93.8,110,96
CCCCCCCCCCCCCCCCCCOP(=O)([O-])OC1CC[N+](C)(C)CC1 [Perifosine] + Cn1c(=O)n(-c2ccc(C(C)(C)C#N)cc2)c2c3cc(-c4cnc5ccccc5c4)ccc3ncc21 [NVP-BEZ235] (partner dose 0.02 µM),61.6,69.5,71.4,79.5,74.6,69.8,36.1,73.3,50.5,66.8,73,66.4,93.7,63.3,66.6,65.6,75.8,75.7,–,–
CCCCCCCCCCCCCCCCCCOP(=O)([O-])OC1CC[N+](C)(C)CC1 [Perifosine] + COC(=O)c1sccc1S(=O)(=O)Nc1ccc(Nc2ccccc2)cc1OC [GSK0660] (partner dose 5 µM),103,97.9,93.2,148,91,94.5,40.4,84,114,92.9,90.7,87.8,93.1,71.5,74.2,90.1,–,96.4,92.3,90.6
CCCCCCCCCCCCCCCCCCOP(=O)([O-])OC1CC[N+](C)(C)CC1 [Perifosine] + O=C(O)C(=O)Nc1sc2c(c1C(=O)O)CCNC2 [TCS401] (partner dose 8.33333 µM),112,98.2,91.6,123,89.1,75,50.1,111,57.5,85.5,88,88.2,93.3,97.2,72.5,78.6,–,89.1,80.8,108
Cn1sc(=O)n(Cc2ccccc2)c1=O + O=C(O)[C@@H]1[O][Sb](=[O])([O][Sb]2(=[O])[O][C@H]([C@H](O)CO)[C@H](O)[C@H](C(=O)O)[O]2)[O][C@H]([C@H](O)CO)[C@@H]1O [stibogluconate] (partner dose 10 µM),80.1,73.5,92.4,92.9,87.8,82,67.2,78,66.2,83.4,70.5,65.8,108,73.2,123,96.8,88.1,85.8,–,–
C[C@@H](N)c1ccc(C(=O)Nc2ccnc3[nH]ccc23)cc1 + COc1cc(N2CCC(N3CCN(C)CC3)CC2)ccc1Nc1ncc(Cl)c(Nc2ccccc2S(=O)(=O)C(C)C)n1 [NVP-TAE684] (partner dose 0.4 µM),79.6,100,93.9,96.5,88.3,41.9,30.5,59.9,73.2,79.7,98,42.3,64,74.7,86.1,56.6,–,76.1,110,68.2
CCCCCCCCCCCCCCCCCCOP(=O)([O-])OC1CC[N+](C)(C)CC1 [Perifosine] + COc1ccc(-c2ccc3c(N4CCOCC4)nc(N4C[C@@H](C)O[C@@H](C)C4)nc3n2)cc1CO [KU0063794] (partner dose 0.1 µM),84.8,86.8,86.4,77.5,77.2,94.1,40.5,99.2,76.8,94.6,103,82.4,97,84.3,100,85.6,–,91.5,93.9,102
Cn1sc(=O)n(Cc2ccccc2)c1=O + N#Cc1c(O)c2c(-c3ccc(-c4ccccc4O)cc3)csc2[nH]c1=O [A769662] (partner dose 10 µM),86.7,87.9,94.2,69.8,86.9,86,82.5,240,88.6,120,98.4,82.2,101,90.7,79,105,–,88.4,96.3,72.8
C[C@@H](N)c1ccc(C(=O)Nc2ccnc3[nH]ccc23)cc1 + CCc1ccc(CCOc2ccc(CC3SC(=O)NC3=O)cc2)nc1 [pioglitazone] (partner dose 10 µM),85.6,89,91.2,85.4,76.1,69.7,49.4,59.6,66.3,94.5,91.5,59.3,79.9,68.2,92,63.9,–,91.2,99.5,61.1
Cn1sc(=O)n(Cc2ccccc2)c1=O + O=S(=O)(c1ccccc1)N(CC(F)(F)F)c1ccc(C(O)(C(F)(F)F)C(F)(F)F)cc1 [T0901317] (partner dose 7 µM),91,88.4,113,114,117,94.6,105,127,74.1,93.8,91.6,98.2,94.2,67.6,99.9,140,–,97,87.7,103
CCCCCCCCCCCCCCCCCCOP(=O)([O-])OC1CC[N+](C)(C)CC1 [Perifosine] + Oc1nc(-c2ccc(C(F)(F)F)cc2)nc2c1CSCC2 [XAV939] (partner dose 10 µM),86.8,91.2,100,88.7,93.2,93,50.3,68.3,88.5,104,86.9,68.8,93,75.8,70.5,66.9,–,108,82.9,99.6
Cn1sc(=O)n(Cc2ccccc2)c1=O + Nc1ccn([C@@H]2O[C@H](CO)[C@@H](O)C2(F)F)c(=O)n1 [gemcitabine] (partner dose 0.002 µM),45.5,41.4,43.7,66.1,53.5,39.2,45,46.8,127,97.2,118,69.8,92.1,87.3,62.7,62.2,45.6,103,–,–
CCCCCCCCCCCCCCCCCCOP(=O)([O-])OC1CC[N+](C)(C)CC1 [Perifosine] + CCCCCCCCCCCC1=C(O)C(=O)C=C(O)C1=O [Embelin] (partner dose 6 µM),77,66.3,63.5,92.5,70.8,108,60.4,66.1,72,73.6,114,110,92.7,75.7,88.8,88.1,–,84.4,82.9,91.2
Cn1sc(=O)n(Cc2ccccc2)c1=O + CCc1ccc(CCOc2ccc(CC3SC(=O)NC3=O)cc2)nc1 [pioglitazone] (partner dose 10 µM),107,112,107,100,93.9,84.9,86.8,86.9,79.9,111,106,97.3,82.1,106,87.3,96.8,–,95.6,104,128
C[C@@H](N)c1ccc(C(=O)Nc2ccnc3[nH]ccc23)cc1 + Cc1cc([N+](=O)[O-])ccc1NS(=O)(=O)c1cc(Cl)ccc1Cl [FH535] (partner dose 5 µM),46.1,51.9,54.7,65.1,42.3,63.3,62.8,42.3,72.2,72.9,76,50.7,48.5,85.9,78,46.9,–,90.4,73.2,35.1
Cn1sc(=O)n(Cc2ccccc2)c1=O + NCC(=O)Nc1ccc(-n2nc(C(F)(F)F)cc2-c2ccc3c(ccc4ccccc43)c2)cc1 [OSU03012] (partner dose 5 µM),79.5,50.3,79.6,73.1,72,85.2,62.4,67.6,16.2,–,58.7,52.6,95.5,78.9,84.8,88.4,79.3,45,–,–
C[C@@H](N)c1ccc(C(=O)Nc2ccnc3[nH]ccc23)cc1 + CCN(CC)CCNC(=O)c1c(C)[nH]c(/C=C2\C(=O)Nc3ccc(F)cc32)c1C [sunitinib] (partner dose 2 µM),79.4,78.3,77.1,74.8,74,58.5,24.9,79.9,67.7,60.6,80.5,44.8,52.5,52.1,81.9,41.2,12.6,59.6,–,–
